{
  "source": "PubChem BioAssay AID504832",
  "about": "(National Center for Advancing Translational Sciences (NCATS), 2011)",
  "note": "Hit rate of the full screen: of about 310,000 compounds, about 18,000 (5.8%) were called active. This list was built around the results that the source calls inconclusive (neither active nor inactive); the mix of calls is not that of the screen. Calls follow the shape of the dose curve; as a rule, active = well fitted inhibition curve with a large enough effect; inconclusive = small, poorly fitted or top-dose-only effect, or another doubt; inactive = no such curve, though single readings can be large or run the other way. No potency is given beside an inconclusive call; the fits are too rough. Potency is read from the fitted curve at half-maximal effect; tags tell the direction and shape of the fitted curve.",
  "data": [
    {"assay": "Primary qHTS for delayed death inhibitors of the malarial parasite plastid, 48 hour incubation", "details": "P. falciparum luciferase growth in erythrocytes; series mostly up to 28.7 µM", "method_in_brief": "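Luciferase-expressing parasites in RBCs, 2% Hct / 0.1% parasitemia final; RPMI 1640 + 0.5% Albumax; 37 C, 5% CO2, one generation; luminescence read-out, lower signal = inhibition.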", "values": [
      {"smiles": "O=C(Nc1ccc(NC(=O)c2ccco2)c(Cl)c1)c1ccccc1", "Potency": "inactive"},
      {"smiles": "CCOC(=O)NC(NC(=S)Nc1ccc(OC)cc1)C(Cl)(Cl)Cl", "note": "(centres undefined)", "Potency": "inactive"},
      {"smiles": "C=C(C)CCOC(=O)C(CC(=O)O)NCc1ccco1", "note": "(centres undefined)", "Potency": "inconclusive [inhibitor, single point]"},
      {"smiles": "O=C(Nn1c(COc2ccccc2)nc2ccccc2c1=O)C(Cl)(Cl)Cl", "Potency": "inactive"},
      {"smiles": "C=C[C@@H]1c2c(F)cccc2N(S(=O)(=O)c2ccc(C)cc2)[C@H](c2ccc(C(=O)OC)cc2)C1(C#N)C#N", "Potency": "active: 4.15 µM"},
      {"smiles": "O=C(NC1CCN(Cc2ccccc2)CC1)c1cn(-c2ccccc2)nc1-c1cccnc1", "Potency": "active: 3.7 µM"},
      {"smiles": "CCCCOc1ccccc1C(=O)N(Cc1ccc(C)o1)C1CCS(=O)(=O)C1", "note": "(centres undefined)", "Potency": "inactive"},
      {"smiles": "COP(=O)(OC)Oc1ccc(C(O)C(Cl)(Cl)Cl)cc1", "note": "(centres undefined)", "Potency": "inactive"},
      {"smiles": "COc1cccc(COCC(O)CN2CCC(C(N)=O)CC2)c1", "note": "(centres undefined)", "Potency": "inconclusive [inhibitor, partial curve, poor fit]"},
      {"smiles": "COC(=O)c1ccc(CSc2nnc(Nc3ccc(C)cc3)s2)o1", "Potency": "inconclusive [inhibitor, partial curve, poor fit]"},
      {"smiles": "O=C(c1cccc([N+](=O)[O-])c1)N1CCN(C/C=C/c2ccccc2)CC1", "Potency": "inconclusive [inhibitor, single point]"},
      {"smiles": "COCCNC(=O)C(c1ccco1)N(C(=O)Cn1nnc2ccccc21)c1ccc(C)cc1C", "note": "(centres undefined)", "Potency": "inconclusive [inhibitor, partial curve]"},
      {"smiles": "CCN1C(=O)c2cccc3c(NC(=O)c4ccc(OC)c(OC)c4)ccc1c23", "Potency": "inconclusive [inhibitor, partial curve, poor fit]"},
      {"smiles": "CC(=O)OCCCN1c2ccccc2Nc2nnc(-c3ccccc3)cc21", "Potency": "inactive"},
      {"smiles": "CC1CCN(c2ccc3c(c2)S(=O)(=O)c2cccc(C(=O)NC4CCCCC4)c2C3=O)CC1", "Potency": "inconclusive [inhibitor, partial curve]"},
      {"smiles": "CCN1C(=O)[C@H]2[C@@H](c3ccc(-c4ccc(F)cc4)c(OC)c3)N[C@@](C)(C(=O)OC)[C@H]2C1=O", "Potency": "inconclusive [inhibitor, single point]"},
      {"smiles": "CC(=O)c1cn(Cc2ccccc2F)c2ccccc12", "Potency": "inconclusive [inhibitor, partial curve, poor fit]"},
      {"smiles": "CCN(CC(=O)Nc1ccccc1C(=O)Nc1ccccc1)Cc1nc2ccccc2c(=O)[nH]1", "Potency": "inconclusive [inhibitor, partial curve, poor fit]"},
      {"smiles": "NC12CC3CC(C1)CC(CO)(C3)O2", "Potency": "inactive"},
      {"smiles": "CCc1ccccc1NC(=O)Nc1cccn(Cc2ccccc2F)c1=O", "Potency": "inconclusive [inhibitor, partial curve, poor fit]"},
      {"smiles": "O=C(C[n+]1ccn(-c2ccccc2)c1)c1ccc([N+](=O)[O-])cc1", "Potency": "inconclusive [inhibitor, single point]"},
      {"smiles": "Cc1ccc2nc(SCc3nnc(-c4ccccc4[N+](=O)[O-])o3)c(C#N)cc2c1", "Potency": "inconclusive [inhibitor, full curve, poor fit]"},
      {"smiles": "N=C(N)N1CCc2ccccc21", "Potency": "inactive"},
      {"smiles": "Cn1c(=O)c2cn3c(c2n(C)c1=O)C(c1ccccc1)CC(c1ccccc1)=N3", "note": "(centres undefined)", "Potency": "inconclusive [inhibitor, partial curve]"},
      {"smiles": "Cc1cc(C)n(-c2ccc(F)cc2)c(=O)c1C#N", "Potency": "inconclusive [inhibitor, single point]"},
      {"smiles": "Cc1cc(N2CCN(C)CC2)nc2ccc(NC(=O)CCC(=O)NCc3ccco3)cc12", "Potency": "inactive"},
      {"smiles": "Cc1cccc(NS(=O)(=O)c2ccc(NC(=O)CN(c3cc([N+](=O)[O-])ccc3C)S(C)(=O)=O)cc2)c1", "Potency": "inconclusive [inhibitor, single point]"},
      {"smiles": "Cn1cc(C(=O)c2ccc(Cl)cc2Cl)cc1C(=O)N/N=C(\\N)COc1ccc(Cl)cc1Cl", "Potency": "inconclusive [inhibitor, partial curve, poor fit]"},
      {"smiles": "COc1ccc(CNCc2cccc(C)c2)cc1", "Potency": "inactive"},
      {"smiles": "COc1ccc(NS(=O)(=O)c2cccc(C(=O)NCc3ccccn3)c2)cc1", "Potency": "inactive"},
      {"smiles": "NC(N)=N/N=C/c1ccc(OCc2ccc(Cl)cc2Cl)cc1", "Potency": "active: 9.28 µM"},
      {"smiles": "COc1cccc(C2c3[nH]c4ccccc4c3CCN2Cc2cccc(C)n2)c1", "note": "(centres undefined)", "Potency": "inconclusive [inhibitor, partial curve]"},
      {"smiles": "Oc1ccc(C[C@H]2CNC(=S)N2CCc2cc(C(F)(F)F)cc(C(F)(F)F)c2)cc1", "Potency": "inactive"},
      {"smiles": "Cn1nc(-c2ccc(C(=O)Nc3ccc(F)cc3)cc2)c2ccccc2c1=O", "Potency": "inconclusive [inhibitor, partial curve, poor fit]"},
      {"smiles": "COc1ccc(CNCc2cn(-c3cccc(F)c3)nc2-c2ccc(C)o2)cc1", "Potency": "inconclusive [inhibitor, partial curve, poor fit]"},
      {"smiles": "Cc1ccc(NC(=O)c2ccc3c(c2)C(=O)N(c2ccccc2C)C3=O)nc1", "Potency": "inactive"},
      {"smiles": "O=C(CCNC(=O)c1ccc(Br)cc1)Nc1cccc(S(=O)(=O)N2CCCCC2)c1", "Potency": "inactive"},
      {"smiles": "Cc1ccccc1-c1nc2c3ccccc3nc(=S)n2[nH]1", "Potency": "inconclusive [inhibitor, partial curve]"},
      {"smiles": "O=C(NC(=S)Nc1ccc(S(=O)(=O)NC2CCCCC2)cc1)c1cccs1", "Potency": "inconclusive [inhibitor, single point]"},
      {"smiles": "CCCCC(=O)Nc1ccc(C(=O)Nc2ccc(S(=O)(=O)N3CCCC3)cc2)cc1", "Potency": "inconclusive [inhibitor, full curve]"},
      {"smiles": "CCc1ccccc1Nc1nc2ccccc2n1CC", "Potency": "inconclusive [inhibitor, partial curve, poor fit]"},
      {"smiles": "CC(=O)Nc1ccc(-c2nc3ccc(NC(C)=O)cc3o2)cc1", "Potency": "inactive"},
      {"smiles": "Cc1cc(-c2ccccc2)nc2cc(C(=O)N(Cc3ccccc3)Cc3ccccc3)nn12", "Potency": "inconclusive [inhibitor, single point]"},
      {"smiles": "COC(=O)C1=C(C)N(Cc2ccccc2)C(=NCc2cccc(C(F)(F)F)c2)N[C@H]1c1cccc(F)c1", "Potency": "active: 6.57 µM"},
      {"smiles": "COc1cc2c(cc1CN1CCN(C(=O)c3cc(OC)c(OC)c(OC)c3)CC1)OCO2", "Potency": "inconclusive [inhibitor, partial curve, poor fit]"},
      {"smiles": "COc1ccccc1CNC(=O)c1ccc(NS(=O)(=O)c2cccs2)cc1", "Potency": "inconclusive [inhibitor, full curve, poor fit]"},
      {"smiles": "COc1cccc(NC(=O)C(OC(=O)c2cnc(C)cn2)c2ccccc2)c1", "note": "(centres undefined)", "Potency": "inconclusive [inhibitor, single point]"},
      {"smiles": "Cn1cc(CN2CC3C[C@@H]4CC2C[C@H](C3)C4)c(-c2ccc3c(c2)OCCO3)n1", "Potency": "inactive"},
      {"smiles": "CCN(CC)c1ccc2c(cc1=O)[C@@H](NC)CCc1cc(OC)c(OC)c(OC)c1-2", "Potency": "inconclusive [inhibitor, single point]"},
      {"smiles": "CC(C)C[C@H](NC(=O)[C@@H](Cc1ccccc1)n1c(=O)[nH]c2ccccc2c1=O)C(=O)N[C@@H](Cc1ccccc1)C(=O)O", "Potency": "inconclusive [inhibitor, partial curve, poor fit]"},
      {"smiles": "CCCn1c(SCC(=O)NCc2ccc(OC)cc2)n[nH]c1=O", "Potency": "inconclusive [inhibitor, full curve, poor fit]"},
      {"smiles": "Cc1ccc(S(=O)(=O)N2CCC[C@H]2C(=O)OC(C)C(=O)Nc2ncc(Cl)cc2Cl)cc1", "note": "(some centres undefined)", "Potency": "inactive"},
      {"smiles": "O=C(NCc1ccco1)c1ccc(C(F)(F)F)cc1", "Potency": "inactive"},
      {"smiles": "O=C(Nc1ccc([N+](=O)[O-])cc1)c1cc2ccccc2nc1Cl", "Potency": "inconclusive [inhibitor, partial curve, poor fit]"},
      {"smiles": "COc1cc(CNc2ccc(N3CCCC3)cc2)ccc1OCc1ccccc1", "Potency": "active: 8.28 µM"},
      {"smiles": "CC(C[N+](C)(C)C)OC(=O)C1(c2ccccc2)CCCC1", "note": "(centres undefined)", "Potency": "active: 10.4 µM"},
      {"smiles": "COc1ccc(CCNC(=O)c2ccc(CNc3nc(=S)[nH]c4ccccc34)cc2)cc1OC", "Potency": "inconclusive [inhibitor, partial curve, poor fit]"},
      {"smiles": "O=C(COC(=O)Cc1ccsc1)Nc1ccc(Cl)cn1", "Potency": "inactive"},
      {"smiles": "O=C(Nc1ccccc1)N1CCC(C(=O)N(Cc2ccco2)Cc2cccs2)CC1", "Potency": "inconclusive [inhibitor, partial curve, poor fit]"},
      {"smiles": "NS(=O)(=O)c1ccc(NC(=O)CSc2nnc(NC3CC3)s2)cc1", "Potency": "inactive"},
      {"smiles": "CC/C(=N\\NC(=O)COc1ccc(Br)cc1)c1ccc(OC)c(OC)c1", "Potency": "inconclusive [inhibitor, partial curve]"},
      {"smiles": "CC(=O)c1ccc(C(=O)N2CCc3c([nH]c4ccccc34)C2c2ccccn2)s1", "note": "(centres undefined)", "Potency": "inconclusive [inhibitor, single point]"},
      {"smiles": "Cn1c2cc(B(O)O)sc2c2cnn(Cc3ccccc3F)c(=O)c21", "Potency": "active: 10.4 µM"},
      {"smiles": "COc1ccc(S(=O)(=O)n2cnc3ccccc32)cc1", "Potency": "inconclusive [inhibitor, single point]"},
      {"smiles": "O=C(C1=C[C@@H](C2CC2)C[C@@H](OCCCCO)O1)N1CCN(Cc2ccccc2)CC1", "Potency": "inactive"},
      {"smiles": "CC1CN(S(=O)(=O)c2csc(C(=O)Nc3ccccc3)c2)CC(C)O1", "note": "(centres undefined)", "Potency": "inactive"},
      {"smiles": "CSc1nc(-c2ccccc2)nc(C(Cl)Cl)n1", "Potency": "inactive"},
      {"smiles": "COc1ccc(CCNc2nc(-c3cccnc3)cs2)cc1OC", "Potency": "inconclusive [inhibitor, partial curve]"},
      {"smiles": "CCOC(=O)c1c(C)nc2sc(C(=O)Nc3ccc(C(C)=O)cc3)c(N)c2c1-c1ccc(OC)cc1", "Potency": "inconclusive [inhibitor, single point]"}
    ]}
  ]
}
